The values below come from ChEMBL document CHEMBL4888484, “Replenishing the malaria drug discovery pipeline: Screening and hit evaluation of the MMV Hit Generation Library 1 (HGL1) against asexual blood stage Plasmodium falciparum ,using a nano luciferase reporter read-out” (2022).

The whole screen tested about 150,000 compounds, of which about 540 (0.36%) showed an effect of 50% or more. The list shows a part of the results.

For the test, the system named is Plasmodium falciparum. Briefly: Primary screen in NF54 nanoGlo assay, in single point, at 2uM, 72h; a lower Z score goes with more inhibition. In kind it is functional, Erythrocyte. The following applies: timepoint 72 hour.
Take `C1CC[C@H](CNC2CCC3(CC2)CC3)OC1`: the “% Inhibition” value is listed as 1% and the Z score is given as -0.1.

As to `O=C(N[C@@H](CN1C(=O)COC1=O)c1ccccc1)c1ccsc1`, the “% Inhibition” value is recorded as -12% and the Z score stood at 1.92.

On to `Cc1ccc(-c2nc(-c3ccc(N4CCOCC4)cc3)no2)c(C)c1`, for which the “% Inhibition” value was -2% and the Z score was 0.29.

In the case of `O=C(NCCn1cccn1)[C@H]1[C@@H]2CN(Cc3ccc4c(c3)OCCO4)C[C@@H]21`, the “% Inhibition” value is on record as -9% and the Z score turned out to be 1.83.

As for `O=S(=O)(NC[C@@]1(COc2cnccn2)C[C@@H](O)[C@@H](O)C1)c1ccc(F)cc1`, the “% Inhibition” value came to 1% and the Z score is -0.19.

As to `COCC[C@H]1COCCN1C(=O)Cc1ccc2[nH]c(=O)[nH]c2c1`, the “% Inhibition” value was -2% and the Z score is 0.35.

On to `Cc1ccc(CN2CCC(CNC(=O)[C@H](C)n3c4ccccc4c4cnn(C)c(=O)c43)CC2)cc1`, for which the “% Inhibition” value was -18% and the Z score was found to be 1.77.

Consider `Cc1c(C(=O)O)nnn1-c1ccc2c(c1)CCC2`, for which the “% Inhibition” value is recorded as -12% and the Z score is on record as 1.33.

On to `O=C(CC[C@H]1CCCO1)N1CC=C(c2c[nH]c3ccccc23)CC1`, for which the “% Inhibition” value was -9% and the Z score is 1.28.

`C[C@H]1CN(C(=O)c2ccc3occc3c2)C[C@]1(O)C1CC1`: the “% Inhibition” value is on record as -23% and the Z score is listed as 2.43.

Turning to `COC(=O)c1n[nH]c2c1CN(C(=O)c1cc(Cl)cn1C)CC2`, the “% Inhibition” value is reported as 6% and the Z score was -1.02.

On to `C[C@@H](CCO)NCc1ccc(CN(C)C)c2c1OC(F)(F)O2`, for which the “% Inhibition” value came to 2% and the Z score is recorded as -0.43.

For `CCC(=O)N1CCCC[C@H]1c1nnc2n1CCN(S(=O)(=O)c1c(C)noc1C)C2`, the “% Inhibition” value is given as -3% and the Z score is given as 0.48.

On to `CN(Cc1nnc2n1CCC2)C(=O)CCOc1ccc(Br)cc1`, for which the “% Inhibition” value is -8% and the Z score is recorded as 1.55.

For `O=C(Cc1cccs1)N1CCN(c2nnc3ccccn23)CC1`, the “% Inhibition” value is recorded as -26% and the Z score amounted to 4.38.

Turning to `CCOCCN1CCN(c2cc(N3CCN(CCOCC)C(C)C3)ncn2)CC1C` (centres undefined), the “% Inhibition” value was -9% and the Z score is 0.85.

As for `O=C(N1CCN(C2CC2)c2cc(Cl)ccc21)C1(n2cnnn2)CCOCC1`, the “% Inhibition” value was 0% and the Z score is -0.02.

Take `CN(C)CCN(C(=O)c1cccc(-n2cnnn2)c1)C1CCCC1`: the “% Inhibition” value is recorded as -5% and the Z score worked out at 0.77.

Turning to `Cc1ccc(CCNC(=O)c2ccncc2)o1`, the “% Inhibition” value is given as -11% and the Z score was found to be 1.45.

In the case of `COC1(C)CN(c2nc3c(N4CC(C)(OC)C4)ncnc3s2)C1`, the “% Inhibition” value worked out at 5% and the Z score is -0.96.

In the case of `CCCC(=O)Nc1ccc(CN=C(N)NCCc2ccccn2)cc1`, the “% Inhibition” value is -2% and the Z score is on record as 0.25.

With `COC(C)c1nc(CN(C)C2Cc3ccccc3C2O)cs1` (centres undefined), the “% Inhibition” value is reported as 2% and the Z score is -0.32.

`COCCc1noc([C@@H]2CCCN2CC(=O)N2CCCc3cc(C)ccc32)n1`: the “% Inhibition” value worked out at 0% and the Z score is given as -0.03.

Turning to `CC1CCN(CC(=O)Nc2cccc3nonc23)CC1`, the “% Inhibition” value is -1% and the Z score turned out to be 0.08.

With `Cc1nnc(-c2ccc(S(=O)(=O)N3CCc4ccccc4C3)s2)o1`, the “% Inhibition” value is recorded as -15% and the Z score amounted to 2.93.

Turning to `Cc1cc(S(=O)(=O)N2CCOC[C@@]23CCOC3)ccc1C#N`, the “% Inhibition” value is 4% and the Z score is recorded as -0.54.

Regarding `CCOc1ccc(NC(=O)N[C@H]2CCN(c3ccc(C(F)(F)F)cn3)C2)cc1`, the “% Inhibition” value is listed as -6% and the Z score was found to be 1.13.

With `CCS(=O)(=O)CC(C)NC(C)c1c(F)cccc1F` (centres undefined), the “% Inhibition” value was -16% and the Z score is recorded as 2.96.

Turning to `CCOc1cccc(-c2cc(-c3c(C)nn(C)c3C)nc(CC(=O)NC)n2)c1`, the “% Inhibition” value is -1% and the Z score is listed as 0.12.

Take `Cc1csc(CNC(=O)[C@H]2CCC(=O)N(C3CCCCCC3)C2)n1`: the “% Inhibition” value came to 1% and the Z score is given as -0.17.

As to `CCc1csc(NC(=O)c2ccc(-c3ccco3)[nH]c2=O)n1`, the “% Inhibition” value worked out at 9% and the Z score is given as -1.16.

Take `CCC(=O)N1c2ccc(S(=O)(=O)N3CCCCC3)cc2C[C@H]1C(=O)NC1CCCCCC1`: the “% Inhibition” value is -7% and the Z score is recorded as 0.9.

Take `Cc1ccc2[nH]c3c(c2c1)C[C@@H](N1C(=O)CN(CC(C)C)C1=O)CC3`: the “% Inhibition” value is reported as -3% and the Z score came out at 0.39.

As to `C[C@H]1CC(=O)N(CCC2CCCCC2)c2ccccc2N1`, the “% Inhibition” value is recorded as -1% and the Z score is recorded as 0.19.

`CC(=O)c1cccc(NC(=O)N2CCC3(CCC3)C2)c1`: the “% Inhibition” value is -6% and the Z score is recorded as 1.19.

As to `CC1NC(=O)N(Cc2ccccn2)C(=O)C1C` (centres undefined), the “% Inhibition” value is recorded as -4% and the Z score amounted to 0.6.

For `CC(C)NC(=O)N[C@@H]1CC[C@H]2CCOc3ccccc3C(=O)N3CCN(Cc4cccc(Cl)c4)C[C@H]3C(=O)NC[C@H]1O2`, the “% Inhibition” value was found to be 27% and the Z score is -3.1.

For the compound `CN(Cc1cccc(OC(F)F)c1)Cc1nnc2n1CCNC2=O`, the “% Inhibition” value is recorded as 0% and the Z score is 0.03.

With `Cc1c(C(=O)NCc2cccnc2N2CCN(C)CC2)n(C)c2ccccc12`, the “% Inhibition” value came out at 5% and the Z score is on record as -0.98.

For `COc1ccc(C(=O)N(Cc2ccccc2)Cc2cc(NS(=O)(=O)c3ccc(OC)cc3)ccc2N(C)C)cc1`, the “% Inhibition” value is -7% and the Z score stood at 1.43.

Take `CCC[C@H](C)NS(=O)(=O)Cc1noc(C2CC2)n1`: the “% Inhibition” value is given as -10% and the Z score amounted to 1.9.

Regarding `CC[C@H]1CN(C(=O)NCCc2csc(C)n2)CCO1`, the “% Inhibition” value is -8% and the Z score is recorded as 0.96.

Usually % Inhibition stands for the change of the read-out against control, counted positive when it falls.
